Experimental data reported in the antibiotic and cytotoxicity screens of Wong et al. (2023).
Some of the results follow.

Columns and labels:
[1] = tested on: HSkMC (human skeletal muscle cells); assay: cytotoxicity call (relative viability < 0.9); conditions: 10 µM
[2] = tested on: HepG2; assay: cytotoxicity call (relative viability < 0.9); conditions: 10 µM
[3] = tested on: S. aureus RN4220; assay: growth inhibition call (relative growth <= 0.2); conditions: 50 µM

SMILES	cytotoxicity call [1]	cytotoxicity call [2]	growth inhibition call [3]
O=C(CN1CCOCC1)N[C@H]1CC[C@H](CCn2cc(C3CC3)nn2)O[C@H]1CO	inactive	inactive	inactive
COc1ccc(C(=O)O)c(O)c1OC	inactive	inactive	inactive
Oc1ccc(Cl)c2cccnc12	active	active	inactive
C=CC[C@@H](CC(=O)N(CCO)Cc1ccccc1)C(=O)N[C@H](COC(=O)[C@@H](CC=C)Cc1ccc(F)cc1)C(C)(C)C	inactive	inactive	inactive
CCC1(C(=O)O)CCNCC1	inactive	inactive	inactive
C[C@H](CO)N1C[C@H](C)[C@H](CN(C)Cc2ccc(C(=O)Nc3ccccc3N)cc2)Oc2ccc(NC(=O)Cc3cn(C)c4ccccc34)cc2CC1=O	active	active	inactive
COc1ccc(S(=O)(=O)Nc2ccc3c(c2)CC(=O)N([C@@H](C)CO)C[C@@H](C)[C@@H](CN(C)S(C)(=O)=O)O3)cc1	inactive	inactive	inactive
CC(C)CC#Cc1ccc2c(c1)O[C@@H](CN(C)C(=O)Cc1ccncc1)[C@H](C)CN([C@@H](C)CO)S2(=O)=O	inactive	inactive	inactive
C[C@@H]1CN([C@@H](C)CO)C(=O)c2cc(NC(=O)C3CCCCC3)ccc2O[C@@H](C)CCCCO[C@@H]1CN(C)S(=O)(=O)c1cccs1	inactive	inactive	inactive
COc1ccc(NC(=O)Nc2ccc3c(c2)C(=O)N([C@H](C)CO)C[C@H](C)[C@@H](CN(C)C(=O)Nc2ccc4c(c2)OCO4)OCCCC[C@@H](C)O3)cc1	inactive	inactive	inactive
COc1ccc(CN(C)C[C@H]2Oc3ccc(NC(=O)Nc4ccc(C(F)(F)F)cc4)cc3C(=O)N([C@@H](C)CO)C[C@H]2C)cc1	active	active	inactive
COc1ccc(S(=O)(=O)N(C)C[C@@H]2Oc3ccc(NC(=O)Nc4cccc5ccccc45)cc3C(=O)N([C@H](C)CO)C[C@H]2C)cc1	inactive	inactive	inactive
C[C@@H]1CN([C@@H](C)CO)C(=O)c2cc(NC(=O)Nc3ccc(F)cc3)ccc2O[C@H]1CN(C)C(=O)Nc1cccc2ccccc12	inactive	inactive	inactive
C[C@H](CO)N1C[C@H](C)[C@H](CN(C)Cc2ccncc2)Oc2ccc(NC(=O)Nc3ccc(C(F)(F)F)cc3)cc2C1=O	inactive	inactive	inactive
C[C@@H]1CCCCO[C@H](CN(C)C(=O)Nc2ccccc2)[C@@H](C)CN([C@@H](C)CO)C(=O)c2cc(NC(=O)CCC(F)(F)F)ccc2O1	inactive	inactive	inactive
C[C@@H]1CCCCO[C@H](CN(C)Cc2ccc3c(c2)OCO3)[C@H](C)CN([C@H](C)CO)C(=O)c2cc(NS(=O)(=O)c3ccc(Cl)cc3)ccc2O1	inactive	inactive	inactive
C[N+](C)(C)CC(O)CC(=O)O.[Cl-] (stereo not drawn)	inactive	inactive	inactive
NC(CC(=O)N1CCn2c(nnc2C(F)(F)F)C1)Cc1cc(F)c(F)cc1F.O.O=P(O)(O)O (stereo not drawn)	inactive	inactive	inactive
Cc1onc(NS(=O)(=O)c2ccccc2-c2ccc(-c3ncco3)cc2CN(C)C(=O)CC(C)(C)C)c1C	inactive	inactive	inactive
C[C@H]1CN([C@@H](C)CO)C(=O)c2cccc(NC(=O)C3CCOCC3)c2O[C@H]1CN(C)Cc1ccc2c(c1)OCO2	inactive	inactive	inactive
O=C(OCc1ccccc1)c1ccccc1	inactive	active	inactive
C[C@@H]1CN([C@@H](C)CO)C(=O)Cc2cc(NC(=O)CCC(F)(F)F)ccc2O[C@H]1CN(C)S(=O)(=O)c1ccccc1	inactive	inactive	inactive
C[C@H]1CCCCO[C@@H](CN(C)Cc2ccc(C(=O)O)cc2)[C@@H](C)CN([C@@H](C)CO)C(=O)c2cc(NC(=O)NC3CCCCC3)ccc2O1	inactive	inactive	inactive
Cc1noc(C)c1NC(=O)N(C)C[C@@H]1Oc2ccc(NC(=O)Cn3cnnn3)cc2C(=O)N([C@@H](C)CO)C[C@H]1C	inactive	inactive	inactive
Cc1cc(C(=O)Nc2cccc3c2O[C@H](CN(C)C(=O)Nc2ccccc2)[C@H](C)CN([C@@H](C)CO)C3=O)n(C)n1	inactive	inactive	inactive
C[C@H](CO)N1C[C@H](C)[C@H](CN(C)CC2CCCCC2)OCCCC[C@H](C)Oc2ccc(NC(=O)C3CCCCC3)cc2C1=O	inactive	inactive	inactive
